In patent US11178870B2 (priority 2017, dated 2021):

Columns and labels:
Assay type in all cases: in vivo
Botrytis cinerea = test: Test Example B: Gray mold on tomato; conditions: class of control value, Table 7
[1] = test system: Blumeria graminis f. sp. hordei; test: Test Example D: Powdery mildew on barley; conditions: class of control value, Table 7
Puccinia recondita = test: Test Example E: Brown rust on wheat; conditions: class of control value, Table 7
Plasmopara viticola = test: Test Example G: Downy mildew on vine; conditions: 250 ppm spray, 2.5 ml/pot; investigated 7 to 10 days after inoculation
Alternaia brassicicola = test: Test Example C: Alternaria sooty spot on cabbage; conditions: class of control value, Table 7

| SMILES | Test B control value (gray mold on tomato) (Botrytis cinerea) | Test D control value (powdery mildew on barley) [1] | Test E control value (brown rust on wheat) (Puccinia recondita) | Test G control value (downy mildew on vine) (Plasmopara viticola) | Test C control value (Alternaria sooty spot on cabbage) (Alternaia brassicicola) |
| --- | --- | --- | --- | --- | --- |
| CCn1c(-c2c(F)cccc2F)c(-c2sc(Br)cc2C)cc(Cl)c1=O [Compound 387] | H (H shows the control value more than 50%) | H (H shows the control value more than 50%) | H (H shows the control value more than 50%) | L (L shows the control value of 50% or less) | H (H shows the control value more than 50%) |
| CCn1c(-c2c(F)cccc2F)c(-c2sc(Br)cc2C)cc(Br)c1=O [Compound 388] | H (H shows the control value more than 50%) | H (H shows the control value more than 50%) | H (H shows the control value more than 50%) | L (L shows the control value of 50% or less) | H (H shows the control value more than 50%) |
| CCn1c(-c2c(F)cccc2F)c(-c2sccc2C)cc(Br)c1=O [Compound 389] | H (H shows the control value more than 50%) | H (H shows the control value more than 50%) | H (H shows the control value more than 50%) | L (L shows the control value of 50% or less) | H (H shows the control value more than 50%) |
| CCn1c(-c2c(F)cccc2F)c(-c2ccsc2C)cc(Cl)c1=O [Compound 390] | H (H shows the control value more than 50%) | L (L shows the control value of 50% or less) | H (H shows the control value more than 50%) | L (L shows the control value of 50% or less) | H (H shows the control value more than 50%) |
| CCn1c(-c2c(F)cccc2Br)c(-n2cc(F)cn2)cc(Cl)c1=O [Compound 391] | H (H shows the control value more than 50%) | L (L shows the control value of 50% or less) | H (H shows the control value more than 50%) | L (L shows the control value of 50% or less) | L (L shows the control value of 50% or less) |
| CCn1c(-c2c(F)cccc2Br)c(-n2cc(F)cn2)cc(Br)c1=O [Compound 392] | H (H shows the control value more than 50%) | L (L shows the control value of 50% or less) | L (L shows the control value of 50% or less) | L (L shows the control value of 50% or less) | H (H shows the control value more than 50%) |
| CCn1c(-c2c(F)cccc2F)c(-c2sccc2Cl)ccc1=O [Compound 393] | H (H shows the control value more than 50%) | L (L shows the control value of 50% or less) | H (H shows the control value more than 50%) | H (H shows the control value more than 50%) | H (H shows the control value more than 50%) |
| O=c1ccc(-c2sccc2Cl)c(-c2c(F)cccc2F)n1CC(F)F [Compound 394] | H (H shows the control value more than 50%) | H (H shows the control value more than 50%) | H (H shows the control value more than 50%) | H (H shows the control value more than 50%) | H (H shows the control value more than 50%) |
| CCn1c(-c2c(F)cccc2F)c(-c2sc(Cl)cc2Cl)cc(Cl)c1=O [Compound 396] | L (L shows the control value of 50% or less) | L (L shows the control value of 50% or less) | L (L shows the control value of 50% or less) | L (L shows the control value of 50% or less) | L (L shows the control value of 50% or less) |
| CCn1c(-c2c(F)cccc2F)c(-c2sccc2Cl)cc(Br)c1=O [Compound 397] | H (H shows the control value more than 50%) | H (H shows the control value more than 50%) | H (H shows the control value more than 50%) | L (L shows the control value of 50% or less) | H (H shows the control value more than 50%) |
| CCn1c(-c2c(F)cccc2F)c(-c2sc(Br)cc2Cl)cc(Br)c1=O [Compound 398] | H (H shows the control value more than 50%) | L (L shows the control value of 50% or less) | H (H shows the control value more than 50%) | L (L shows the control value of 50% or less) | H (H shows the control value more than 50%) |
| Nn1c(-c2c(F)cccc2F)c(-c2ccsc2Cl)cc(Br)c1=O [Compound 399] | H (H shows the control value more than 50%) | L (L shows the control value of 50% or less) | H (H shows the control value more than 50%) | L (L shows the control value of 50% or less) | L (L shows the control value of 50% or less) |
| O=c1c(Br)cc(-c2cc(Br)sc2Cl)c(-c2c(F)cccc2F)n1CC(F)F [Compound 400] | L (L shows the control value of 50% or less) | L (L shows the control value of 50% or less) | L (L shows the control value of 50% or less) | L (L shows the control value of 50% or less) | H (H shows the control value more than 50%) |
| O=c1ccc(-c2cc(Br)sc2Cl)c(-c2c(F)cccc2F)n1CC(F)F [Compound 401] | L (L shows the control value of 50% or less) | L (L shows the control value of 50% or less) | L (L shows the control value of 50% or less) | L (L shows the control value of 50% or less) | H (H shows the control value more than 50%) |
| O=c1c(Br)cc(-c2ccsc2Cl)c(-c2c(F)cccc2F)n1CC(F)F [Compound 402] | L (L shows the control value of 50% or less) | L (L shows the control value of 50% or less) | L (L shows the control value of 50% or less) | L (L shows the control value of 50% or less) | H (H shows the control value more than 50%) |
| O=c1c(Cl)cc(-c2cc(Br)sc2Cl)c(-c2c(F)cccc2F)n1CC(F)F [Compound 403] | H (H shows the control value more than 50%) | L (L shows the control value of 50% or less) | L (L shows the control value of 50% or less) | L (L shows the control value of 50% or less) | H (H shows the control value more than 50%) |
| Cc1cnn(-c2ccc(=O)n(CC(F)F)c2-c2ccccc2Br)c1 [Compound 405] | L (L shows the control value of 50% or less) | H (H shows the control value more than 50%) | H (H shows the control value more than 50%) | L (L shows the control value of 50% or less) | H (H shows the control value more than 50%) |
| Cc1cnn(-c2ccc(=O)n(C)c2-c2ccc(F)cc2F)c1 [Compound 406] | L (L shows the control value of 50% or less) | H (H shows the control value more than 50%) | L (L shows the control value of 50% or less) | L (L shows the control value of 50% or less) | H (H shows the control value more than 50%) |
